# Assay results taken from the supplement of paper PMC8728848.
# This is one part of the list.
# Assays:
# Assay in all cases: glycan array binding signal (z-score within array); higher = stronger binding
# Settings in all cases: glycan notation: IUPAC condensed, linker removed
# [1] = biological target: Man(a1-2)Man(a1-3)[Man(a1-2)Man(a1-6)]Man
# Outline: (§1)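 Columns mapping to the same glycan were averaged after glycan names were converted to IUPAC-condensed notation. The data come from 3228 arrays in the Consortium for Functional Glycomics database, limited to those with an available protein sequence. Binding is reported as a within-array Z-score averaged across arrays of one protein sequence and across linkers.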
# [2] = biological target: Man(a1-2)Man(a1-3)[Man(a1-2)Man(a1-6)]Man(a1-6)[Man(a1-2)Man(a1-2)Man(a1-3)]Man
# Outline: as §1
# [3] = biological target: Man(a1-2)Man(a1-3)[Man(a1-2)Man(a1-6)]Man(a1-6)[Man(a1-2)Man(a1-2)Man(a1-3)]Man(b1-4)GlcNAc(b1-4)GlcNAc
# Outline: as §1
# [4] = biological target: Man(a1-2)Man(a1-3)[Man(a1-6)]Man(a1-6)[Man(a1-2)Man(a1-3)]Man(b1-4)GlcNAc(b1-4)GlcNAc
# Outline: as §1
# [5] = biological target: Man(a1-2)Man(a1-6)[Man(a1-3)]Man(a1-6)[Man(a1-2)Man(a1-2)Man(a1-3)]Man
# Outline: as §1
# [6] = biological target: Man(a1-2)Man(a1-6)[Man(a1-3)]Man(a1-6)[Man(a1-2)Man(a1-2)Man(a1-3)]Man(b1-4)GlcNAc(b1-4)GlcNAc
# Outline: as §1
# [7] = biological target: Man(a1-3)[Man(a1-6)]Man
# Outline: as §1
# [8] = biological target: Man(a1-3)[Man(a1-6)]Man(a1-6)[Man(a1-2)Man(a1-3)]Man(b1-4)GlcNAc(b1-4)GlcNAc
# Outline: as §1
# [9] = biological target: Man(a1-3)[Man(a1-6)]Man(a1-6)[Man(a1-3)]Man
# Outline: as §1
# [10] = biological target: Man(a1-3)[Man(a1-6)]Man(a1-6)[Man(a1-3)]Man(b1-4)GlcNAc(b1-4)GlcNAc
# Outline: as §1
# [11] = biological target: Man(a1-3)[Man(a1-6)]Man(b1-4)GlcNAc(b1-4)GlcNAc
# Outline: as §1
# [12] = biological target: Man(a1-3)[Man(a1-6)]Man(b1-4)GlcNAc(b1-4)[Fuc(a1-6)]GlcNAc
# Outline: as §1
# [13] = biological target: Man(a1-6)Man
# Outline: as §1
# [14] = biological target: Man(b1-4)GlcNAc
# Outline: as §1
# [15] = biological target: MurNAc(b1-4)GlcNAc
# Outline: as §1
# [16] = biological target: Neu5Ac(a2-3)Gal
# Outline: as §1
# [17] = biological target: Neu5Ac(a2-3)Gal(b1-3)GalNAc
# Outline: as §1
# [18] = biological target: Neu5Ac(a2-3)Gal(b1-3)GalNAc(b1-3)Gal(a1-4)Gal(b1-4)Glc
# Outline: as §1
# [19] = biological target: Neu5Ac(a2-3)Gal(b1-3)GalNAc(b1-4)[Neu5Ac(a2-3)]Gal(b1-4)Glc
# Outline: as §1
# [20] = biological target: Neu5Ac(a2-3)Gal(b1-3)GalNAc(b1-4)[Neu5Ac(a2-8)Neu5Ac(a2-3)]Gal(b1-4)Glc
# Outline: as §1
# [21] = biological target: Neu5Ac(a2-3)Gal(b1-3)GalNAc6S
# Outline: as §1
# [22] = biological target: Neu5Ac(a2-3)Gal(b1-3)GlcNAc
# Outline: as §1
# [23] = biological target: Neu5Ac(a2-3)Gal(b1-3)GlcNAc(b1-2)Man
# Outline: as §1
# [24] = biological target: Neu5Ac(a2-3)Gal(b1-3)GlcNAc(b1-2)Man(a1-3)[GlcNAc(b1-4)][Neu5Ac(a2-3)Gal(b1-3)GlcNAc(b1-2)Man(a1-6)]Man(b1-4)GlcNAc(b1-4)GlcNAc
# Outline: as §1
# [25] = biological target: Neu5Ac(a2-3)Gal(b1-3)GlcNAc(b1-2)Man(a1-3)[Neu5Ac(a2-3)Gal(b1-3)GlcNAc(b1-2)Man(a1-6)]Man(b1-4)GlcNAc(b1-4)GlcNAc
# Outline: as §1
# [26] = biological target: Neu5Ac(a2-3)Gal(b1-3)GlcNAc(b1-3)Gal(b1-3)GlcNAc
# Outline: as §1
# [27] = biological target: Neu5Ac(a2-3)Gal(b1-3)GlcNAc(b1-3)Gal(b1-4)GlcNAc
# Outline: as §1
# [28] = biological target: Neu5Ac(a2-3)Gal(b1-3)GlcNAc(b1-3)GalNAc
# Outline: as §1
# [29] = biological target: Neu5Ac(a2-3)Gal(b1-3)GlcNAc(b1-4)Gal(b1-4)Glc
# Outline: as §1
# [30] = biological target: Neu5Ac(a2-3)Gal(b1-3)GlcNAc(b1-6)GalNAc
# Outline: as §1
# [31] = biological target: Neu5Ac(a2-3)Gal(b1-3)GlcNAc6S
# Outline: as §1
# [32] = biological target: Neu5Ac(a2-3)Gal(b1-3)[Fuc(a1-4)]GlcNAc
# Outline: as §1
# [33] = biological target: Neu5Ac(a2-3)Gal(b1-3)[Fuc(a1-4)]GlcNAc(b1-3)Gal(b1-3)[Fuc(a1-4)]GlcNAc
# Outline: as §1
# [34] = biological target: Neu5Ac(a2-3)Gal(b1-3)[Fuc(a1-4)]GlcNAc(b1-3)Gal(b1-4)[Fuc(a1-3)]GlcNAc
# Outline: as §1
# [35] = biological target: Neu5Ac(a2-3)Gal(b1-3)[GlcNAc(b1-6)]GalNAc
# Outline: as §1
# [36] = biological target: Neu5Ac(a2-3)Gal(b1-3)[Neu5Ac(a2-6)]GalNAc
# Outline: as §1
# [37] = biological target: Neu5Ac(a2-3)Gal(b1-3)[Neu5Ac(a2-6)]GlcNAc(b1-3)[Fuc(a1-3)[Gal(b1-4)]GlcNAc(b1-6)]Gal(b1-4)Glc
# Outline: as §1
# [38] = biological target: Neu5Ac(a2-3)Gal(b1-3)]Neu5Ac(a2-3)Gal(b1-4)]GlcNAc
# Outline: as §1
# [39] = biological target: Neu5Ac(a2-3)Gal(b1-4)Glc
# Outline: as §1
# [40] = biological target: Neu5Ac(a2-3)Gal(b1-4)GlcNAc
# Outline: as §1
# [41] = biological target: Neu5Ac(a2-3)Gal(b1-4)GlcNAc(b1-2)Man
# Outline: as §1
# [42] = biological target: Neu5Ac(a2-3)Gal(b1-4)GlcNAc(b1-2)Man(a1-3)[GlcNAc(b1-4)][Neu5Ac(a2-3)Gal(b1-4)GlcNAc(b1-2)Man(a1-6)]Man(b1-4)GlcNAc(b1-4)GlcNAc
# Outline: as §1
# [43] = biological target: Neu5Ac(a2-3)Gal(b1-4)GlcNAc(b1-2)Man(a1-3)[Neu5Ac(a2-3)Gal(b1-4)GlcNAc(b1-2)Man(a1-6)]Man(b1-4)GlcNAc(b1-4)GlcNAc
# Outline: as §1
# [44] = biological target: Neu5Ac(a2-3)Gal(b1-4)GlcNAc(b1-2)Man(a1-3)[Neu5Ac(a2-3)Gal(b1-4)GlcNAc(b1-2)Man(a1-6)]Man(b1-4)GlcNAc(b1-4)[Fuc(a1-6)]GlcNAc
# Outline: as §1
# [45] = biological target: Neu5Ac(a2-3)Gal(b1-4)GlcNAc(b1-2)Man(a1-3)[Neu5Ac(a2-6)Gal(b1-4)GlcNAc(b1-2)Man(a1-6)]Man(b1-4)GlcNAc(b1-4)GlcNAc
# Outline: as §1
binder,measurement,setting,value
"CFEM-SCL (Saccharomyces cerevisiae), O13547 (protein) MRATTLLSSVVSLALLSKEVLATPPACLLACVAQVGKSSSTCDSLNQVTCYCEHENSAVKKCLDSICPNNDADAAYSAFKSSCSEQNASLGD",glycan array binding signal (z-score),[1],-0.249
same,glycan array binding signal (z-score),[2],-0.133
same,glycan array binding signal (z-score),[3],-0.255
same,glycan array binding signal (z-score),[4],-0.174
same,glycan array binding signal (z-score),[5],-0.304
same,glycan array binding signal (z-score),[6],-0.252
same,glycan array binding signal (z-score),[7],-0.216
same,glycan array binding signal (z-score),[8],-0.231
same,glycan array binding signal (z-score),[9],-0.302
same,glycan array binding signal (z-score),[10],-0.255
same,glycan array binding signal (z-score),[11],-0.271
same,glycan array binding signal (z-score),[12],-0.235
same,glycan array binding signal (z-score),[13],0.021
same,glycan array binding signal (z-score),[14],-0.254
same,glycan array binding signal (z-score),[15],-0.324
same,glycan array binding signal (z-score),[16],-0.351
same,glycan array binding signal (z-score),[17],-0.326
same,glycan array binding signal (z-score),[18],-0.203
same,glycan array binding signal (z-score),[19],-0.299
same,glycan array binding signal (z-score),[20],-0.319
same,glycan array binding signal (z-score),[21],-0.34
same,glycan array binding signal (z-score),[22],-0.285
same,glycan array binding signal (z-score),[23],-0.012
same,glycan array binding signal (z-score),[24],-0.147
same,glycan array binding signal (z-score),[25],-0.331
same,glycan array binding signal (z-score),[26],-0.21
same,glycan array binding signal (z-score),[27],-0.35
same,glycan array binding signal (z-score),[28],-0.343
same,glycan array binding signal (z-score),[29],-0.204
same,glycan array binding signal (z-score),[30],-0.275
same,glycan array binding signal (z-score),[31],-0.283
same,glycan array binding signal (z-score),[32],-0.204
same,glycan array binding signal (z-score),[33],-0.195
same,glycan array binding signal (z-score),[34],-0.234
same,glycan array binding signal (z-score),[35],-0.226
same,glycan array binding signal (z-score),[36],-0.091
same,glycan array binding signal (z-score),[37],-0.267
same,glycan array binding signal (z-score),[38],-0.332
same,glycan array binding signal (z-score),[39],-0.253
same,glycan array binding signal (z-score),[40],-0.229
same,glycan array binding signal (z-score),[41],-0.135
same,glycan array binding signal (z-score),[42],-0.18
same,glycan array binding signal (z-score),[43],-0.35
same,glycan array binding signal (z-score),[44],-0.197
same,glycan array binding signal (z-score),[45],-0.265
